Single values are uncertain, as repeats are few or missing.
Legend:
CHO-K1 [1] = experiment: relative survival (nuclei to bead ratio vs DMSO control) (% of vehicle control); higher = more surviving cells
Experimental: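 Flow-cytometric in vitro micronucleus assay (Litron MicroFlow) in CHO-K1 cells in 96-well plates, 19 concentrations (4.5-200 µM, n=1 per concentration). Without S9, cells were exposed for 24 h and sampled at 48 h. With Aroclor 1254-induced rat liver S9, cells were exposed for 3-4 h and sampled at 27-28 h. Read-outs are %MN and %hypodiploid nuclei relative to nucleated events, and relative survival as the nuclei-to-bead ratio versus the 1% DMSO vehicle control (x100).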

CHO-K1 [2] = experiment: micronucleus frequency (% of nucleated events); higher = more micronuclei (genotoxic)
CHO-K1 [3] = experiment: hypodiploid nuclei frequency (% of nucleated events); higher = more hypodiploid events (aneugenic)
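Wherever hypodiploid nuclei frequency (% of nucleated events) is given: hypodiploid nuclei gated on a flow cytometer with 488 nm excitation after SYTOX Green staining, cultures at 37 °C, positive controls vinblastine without S9 and cyclophosphamide with S9.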
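Wherever micronucleus frequency (% of nucleated events) is given: cells lysed with nuclei stained by SYTOX Green, then micronucleus-gated events counted against nucleated events by flow cytometry with 488 nm excitation.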
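Wherever relative survival (nuclei to bead ratio vs DMSO control) is given: Lysed-cell nuclei stained with SYTOX Green and counted against counting beads by flow cytometry at 488 nm excitation, with vinblastine (no S9) and cyclophosphamide (plus S9) as positive controls.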

O=C1OC(c2ccc(O)cc2)(c2ccc(O)cc2)c2ccccc21 [Phenolphthalein]
Settings | hypodiploid nuclei frequency, CHO-K1 [3] [%] | micronucleus frequency, CHO-K1 [2] [%] | relative survival, CHO-K1 [1]
concentration: 4.5 (µM), S9 metabolic activation: with S9, exposure time: 3-4 hours | 0.24 | 1.04 | 126
concentration: 4.5 (µM), S9 metabolic activation: without S9, exposure time: 24 hours | 0.9 | 1.22 | 120
concentration: 5.63 (µM), S9 metabolic activation: with S9, exposure time: 3-4 hours | 0.1 | 0.78 | 119
concentration: 5.63 (µM), S9 metabolic activation: without S9, exposure time: 24 hours | 0.72 | 0.96 | 106
concentration: 7.04 (µM), S9 metabolic activation: with S9, exposure time: 3-4 hours | 0.3 | 1 | 115
concentration: 7.04 (µM), S9 metabolic activation: without S9, exposure time: 24 hours | 0.74 | 0.96 | 112
concentration: 8.8 (µM), S9 metabolic activation: with S9, exposure time: 3-4 hours | 0.24 | 1.16 | 134
concentration: 8.8 (µM), S9 metabolic activation: without S9, exposure time: 24 hours | 1 | 1.14 | 112
concentration: 11 (µM), S9 metabolic activation: with S9, exposure time: 3-4 hours | 0.18 | 1.32 | 108
concentration: 11 (µM), S9 metabolic activation: without S9, exposure time: 24 hours | 0.74 | 1.24 | 117
concentration: 13.7 (µM), S9 metabolic activation: with S9, exposure time: 3-4 hours | 0.14 | 0.84 | 163
concentration: 13.7 (µM), S9 metabolic activation: without S9, exposure time: 24 hours | 0.46 | 1.18 | 100
concentration: 17.2 (µM), S9 metabolic activation: with S9, exposure time: 3-4 hours | 0.22 | 1.36 | 128
concentration: 17.2 (µM), S9 metabolic activation: without S9, exposure time: 24 hours | 0.68 | 1.1 | 116
concentration: 21.5 (µM), S9 metabolic activation: with S9, exposure time: 3-4 hours | 0.2 | 1.46 | 122
concentration: 21.5 (µM), S9 metabolic activation: without S9, exposure time: 24 hours | 0.68 | 0.94 | 84.3
concentration: 26.8 (µM), S9 metabolic activation: with S9, exposure time: 3-4 hours | 0.34 | 1.22 | 138
concentration: 26.8 (µM), S9 metabolic activation: without S9, exposure time: 24 hours | 1.3 | 1.26 | 81.4
concentration: 33.6 (µM), S9 metabolic activation: with S9, exposure time: 3-4 hours | 0.42 | 1.2 | 150
concentration: 33.6 (µM), S9 metabolic activation: without S9, exposure time: 24 hours | 1.98 | 2.32 | 75.4
concentration: 41.9 (µM), S9 metabolic activation: with S9, exposure time: 3-4 hours | 0.38 | 1.42 | 118
concentration: 41.9 (µM), S9 metabolic activation: without S9, exposure time: 24 hours | 6.24 | 4.86 | 88.1
concentration: 52.4 (µM), S9 metabolic activation: with S9, exposure time: 3-4 hours | 0.64 | 1.36 | 105
concentration: 52.4 (µM), S9 metabolic activation: without S9, exposure time: 24 hours | 20 | 14.1 | 65.5
concentration: 65.5 (µM), S9 metabolic activation: with S9, exposure time: 3-4 hours | 0.4 | 1.1 | 95.3
concentration: 65.5 (µM), S9 metabolic activation: without S9, exposure time: 24 hours | – | – | 38.8
concentration: 81.9 (µM), S9 metabolic activation: with S9, exposure time: 3-4 hours | 0.36 | 1.46 | 90.7
concentration: 81.9 (µM), S9 metabolic activation: without S9, exposure time: 24 hours | – | – | 31.5
concentration: 102 (µM), S9 metabolic activation: with S9, exposure time: 3-4 hours | 0.48 | 1.68 | 75.3
concentration: 102 (µM), S9 metabolic activation: without S9, exposure time: 24 hours | – | – | 37
concentration: 128 (µM), S9 metabolic activation: with S9, exposure time: 3-4 hours | 0.34 | 1.46 | 84.7
concentration: 128 (µM), S9 metabolic activation: without S9, exposure time: 24 hours | – | – | 38.3
concentration: 160 (µM), S9 metabolic activation: with S9, exposure time: 3-4 hours | 0.76 | 3.48 | 57
concentration: 160 (µM), S9 metabolic activation: without S9, exposure time: 24 hours | – | – | 35.5
concentration: 200 (µM), S9 metabolic activation: with S9, exposure time: 3-4 hours | – | – | 30.1
concentration: 200 (µM), S9 metabolic activation: without S9, exposure time: 24 hours | – | – | 38.8

CCOC(=O)C(O)(c1ccc(Cl)cc1)c1ccc(Cl)cc1 [Chlorobenzilate]
Settings | hypodiploid nuclei frequency, CHO-K1 [3] [%] | micronucleus frequency, CHO-K1 [2] [%] | relative survival, CHO-K1 [1]
concentration: 4.5 (µM), S9 metabolic activation: with S9, exposure time: 3-4 hours | 0.36 | 1.38 | 113
concentration: 4.5 (µM), S9 metabolic activation: without S9, exposure time: 24 hours | 0.72 | 1.92 | 150
concentration: 5.63 (µM), S9 metabolic activation: with S9, exposure time: 3-4 hours | 0.18 | 1.16 | 89.5
concentration: 5.63 (µM), S9 metabolic activation: without S9, exposure time: 24 hours | 0.78 | 2.38 | 147
concentration: 7.04 (µM), S9 metabolic activation: with S9, exposure time: 3-4 hours | 0.18 | 1 | 104
concentration: 7.04 (µM), S9 metabolic activation: without S9, exposure time: 24 hours | 0.72 | 2.04 | 130
concentration: 8.8 (µM), S9 metabolic activation: with S9, exposure time: 3-4 hours | 0.14 | 1.2 | 108
concentration: 8.8 (µM), S9 metabolic activation: without S9, exposure time: 24 hours | 0.64 | 1.7 | 131
concentration: 11 (µM), S9 metabolic activation: with S9, exposure time: 3-4 hours | 0.12 | 0.92 | 104
concentration: 11 (µM), S9 metabolic activation: without S9, exposure time: 24 hours | 0.58 | 1.54 | 113
concentration: 13.7 (µM), S9 metabolic activation: with S9, exposure time: 3-4 hours | 0.34 | 1.14 | 106
concentration: 13.7 (µM), S9 metabolic activation: without S9, exposure time: 24 hours | 0.62 | 1.78 | 123
concentration: 17.2 (µM), S9 metabolic activation: with S9, exposure time: 3-4 hours | 0.14 | 1 | 92.1
concentration: 17.2 (µM), S9 metabolic activation: without S9, exposure time: 24 hours | 0.2 | 1.78 | 115
concentration: 21.5 (µM), S9 metabolic activation: with S9, exposure time: 3-4 hours | 0.22 | 0.78 | 90
concentration: 21.5 (µM), S9 metabolic activation: without S9, exposure time: 24 hours | 0.36 | 2.2 | 112
concentration: 26.8 (µM), S9 metabolic activation: with S9, exposure time: 3-4 hours | 0.18 | 1.42 | 94.5
concentration: 26.8 (µM), S9 metabolic activation: without S9, exposure time: 24 hours | 0.32 | 1.34 | 93.5
concentration: 33.6 (µM), S9 metabolic activation: with S9, exposure time: 3-4 hours | 0.14 | 1.08 | 90
concentration: 33.6 (µM), S9 metabolic activation: without S9, exposure time: 24 hours | 0.44 | 0.72 | 104
concentration: 41.9 (µM), S9 metabolic activation: with S9, exposure time: 3-4 hours | 0.26 | 1.14 | 108
concentration: 41.9 (µM), S9 metabolic activation: without S9, exposure time: 24 hours | 0.72 | 1.24 | 80
concentration: 52.4 (µM), S9 metabolic activation: with S9, exposure time: 3-4 hours | 0.3 | 1.26 | 105
concentration: 52.4 (µM), S9 metabolic activation: without S9, exposure time: 24 hours | 1.34 | 2.78 | 89.7
concentration: 65.5 (µM), S9 metabolic activation: with S9, exposure time: 3-4 hours | 0.14 | 1.04 | 103
concentration: 65.5 (µM), S9 metabolic activation: without S9, exposure time: 24 hours | 3.3 | 4.18 | 54.4
concentration: 81.9 (µM), S9 metabolic activation: with S9, exposure time: 3-4 hours | 0.18 | 1.08 | 121
concentration: 81.9 (µM), S9 metabolic activation: without S9, exposure time: 24 hours | 2.62 | 5.88 | 61.4
concentration: 102 (µM), S9 metabolic activation: with S9, exposure time: 3-4 hours | 0.24 | 1.18 | 114
concentration: 102 (µM), S9 metabolic activation: without S9, exposure time: 24 hours | – | – | 39
concentration: 128 (µM), S9 metabolic activation: with S9, exposure time: 3-4 hours | 0.36 | 1.42 | 81.1
concentration: 128 (µM), S9 metabolic activation: without S9, exposure time: 24 hours | – | – | 35.3
concentration: 160 (µM), S9 metabolic activation: with S9, exposure time: 3-4 hours | – | – | 32.1
concentration: 160 (µM), S9 metabolic activation: without S9, exposure time: 24 hours | – | – | 25.4
concentration: 200 (µM), S9 metabolic activation: with S9, exposure time: 3-4 hours | – | – | 0.11
concentration: 200 (µM), S9 metabolic activation: without S9, exposure time: 24 hours | – | – | 1.12

From the supplement of paper PMC9151546
